Data published in the BET-seq Pho4 binding data (Le et al. 2018).
Some of the results follow. Values were computed here from the reads of four pooled replicates and scatter widely.

Each sequence was assayed against T1, Pho4 (S. cerevisiae) (UniProt P07270) (assay: relative binding free energy (BET-seq); higher = weaker binding). Details: reference: library average.
T1 sequence: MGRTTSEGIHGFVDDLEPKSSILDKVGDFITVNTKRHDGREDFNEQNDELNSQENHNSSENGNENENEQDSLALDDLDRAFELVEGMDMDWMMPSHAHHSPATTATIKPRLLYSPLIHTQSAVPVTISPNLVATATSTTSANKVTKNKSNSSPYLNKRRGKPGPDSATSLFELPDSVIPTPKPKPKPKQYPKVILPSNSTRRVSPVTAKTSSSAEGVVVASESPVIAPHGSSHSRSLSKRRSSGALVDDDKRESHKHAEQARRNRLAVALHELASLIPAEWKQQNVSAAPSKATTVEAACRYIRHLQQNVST

Sequence | relative binding free energy
GTTAACACGTGTTATA | 0.04 kcal/mol
TGCTTCACGTGTGTTC | 0.39 kcal/mol
ATATGCACGTGGAAAT | 0.01 kcal/mol
GCGTTCACGTGTCGTT | 0.54 kcal/mol
TTCATCACGTGGTGGG | 0.1 kcal/mol
CAGGTCACGTGATGTG | 0.28 kcal/mol
GAGTGCACGTGTGGAC | 0.18 kcal/mol
GTTGGCACGTGTGCTT | 0.03 kcal/mol
GGGCGCACGTGATATT | 0.26 kcal/mol
CGTTTCACGTGATGTT | 0.3 kcal/mol
AATAACACGTGGTGTT | -0.29 kcal/mol
AGGGGCACGTGGTCTT | -0.12 kcal/mol
GTTAACACGTGGGCTA | -0.15 kcal/mol
GGGAACACGTGGTGAA | 0.04 kcal/mol
GCGGTCACGTGATATG | 0.22 kcal/mol
AGTTACACGTGTTCGT | 0 kcal/mol
AATTTCACGTGGACGG | 0.37 kcal/mol
TGCTACACGTGAGTGT | 0.22 kcal/mol
TGAGGCACGTGACGGA | -0.04 kcal/mol
AGATTCACGTGGGTTG | 0.3 kcal/mol
TTTGTCACGTGGGTAC | -0.05 kcal/mol
GTCGTCACGTGTCGTT | 0.11 kcal/mol
TGTAACACGTGGGTGT | -0.07 kcal/mol
GGTTGCACGTGCAGAT | 0.14 kcal/mol
AAGGGCACGTGCGTAG | -0.07 kcal/mol
TATGGCACGTGCCTGG | -0.18 kcal/mol

Sequence | relative binding free energy
GTTGTCACGTGATGGT | 0.23 kcal/mol
TATAGCACGTGAGGAG | 0.22 kcal/mol
GGGTGCACGTGGCCTG | -0.14 kcal/mol
AAGGACACGTGTGATG | 0.05 kcal/mol
GTCGTCACGTGGTGTC | -0.03 kcal/mol
GCGTACACGTGGGTGC | 0.06 kcal/mol
GATTTCACGTGTTTTC | 0.23 kcal/mol
GCTGGCACGTGATAGT | -0.11 kcal/mol
GCGGGCACGTGGCAGG | -0.14 kcal/mol
AGTCTCACGTGGGTCG | -0.01 kcal/mol
TAGTTCACGTGGGTGT | 0.23 kcal/mol
TGCGACACGTGGGGCT | -0.12 kcal/mol
GTAGGCACGTGCAGGT | -0.15 kcal/mol
TACGGCACGTGGGTCT | -0.15 kcal/mol
CAGGGCACGTGGGTAT | -0.1 kcal/mol
CGCGGCACGTGAGTGA | 0.14 kcal/mol
AGGTTCACGTGTAGTG | 0.19 kcal/mol
GGTATCACGTGAATGC | 0.39 kcal/mol
GTCTGCACGTGTGCGG | 0.07 kcal/mol
AGCGGCACGTGCGGGT | -0.2 kcal/mol
TTCGGCACGTGAGTAA | 0.26 kcal/mol
TCGGGCACGTGAAGTA | 0.11 kcal/mol
TTATCCACGTGAGTAG | 0.32 kcal/mol
GGGGACACGTGGAGGA | 0.17 kcal/mol
TAGAGCACGTGTGGCG | -0.08 kcal/mol
TATGGCACGTGCAGGA | -0.18 kcal/mol

Sequence | relative binding free energy
AGTGGCACGTGATATG | 0 kcal/mol
TGGGGCACGTGGAAAT | -0.04 kcal/mol
ACTCTCACGTGTGTGG | 0.27 kcal/mol
CGTTTCACGTGGGTTT | 0.1 kcal/mol
TGGATCACGTGTGTAT | 0.14 kcal/mol
TTGGGCACGTGAAAGA | 0.15 kcal/mol
AATTTCACGTGTTAAA | 0.4 kcal/mol
AGACGCACGTGGGGTC | -0.16 kcal/mol
ATTGGCACGTGCGTAT | -0.25 kcal/mol
AATCTCACGTGGGGTT | 0.14 kcal/mol
GTAGGCACGTGATAGA | -0.19 kcal/mol
ATTTCCACGTGGGTAT | -0.15 kcal/mol
GGGAGCACGTGCTTGG | -0.19 kcal/mol
TATGTCACGTGATAGA | 0.07 kcal/mol
CAGGTCACGTGATATG | 0.09 kcal/mol
GAGTTCACGTGAGGGT | 0.46 kcal/mol
GTAGGCACGTGTGATT | 0.06 kcal/mol
GATGTCACGTGAGCAG | 0.41 kcal/mol
TGCGGCACGTGGTATT | -0.37 kcal/mol
ATATTCACGTGTTCAT | 0.21 kcal/mol
GGGTCCACGTGTGGTC | 0.01 kcal/mol
GGATTCACGTGGGGGC | 0.18 kcal/mol
GTGTTCACGTGTTCTT | 0.38 kcal/mol
TTAGACACGTGTGTTG | 0.08 kcal/mol
GGTTTCACGTGTAGGT | 0.26 kcal/mol
TTTGACACGTGATTCG | 0.02 kcal/mol

Sequence | relative binding free energy
TGATTCACGTGGCGGT | 0.07 kcal/mol
TGTATCACGTGAGATG | 0.31 kcal/mol
ATGTTCACGTGGGTAT | 0.24 kcal/mol
GGGTACACGTGTGGAA | 0.26 kcal/mol
GTGTCCACGTGAGGGT | 0.32 kcal/mol
AGTGTCACGTGTTCGT | 0.01 kcal/mol
TGATACACGTGTGTAA | 0.06 kcal/mol
AAGAGCACGTGGTATA | -0.2 kcal/mol
ATTCACACGTGGAGTG | -0.05 kcal/mol
GTCCGCACGTGTAGGG | -0.02 kcal/mol
CGAGGCACGTGGCCGG | -0.14 kcal/mol
AGGGTCACGTGCCAGG | -0.11 kcal/mol
TAACTCACGTGTTGGG | 0.27 kcal/mol
TTATGCACGTGGAATA | -0.2 kcal/mol
TATGGCACGTGTCGCT | -0.12 kcal/mol
GCATTCACGTGTATGG | 0.29 kcal/mol
TTGGCCACGTGAAGGT | 0.14 kcal/mol
GGACTCACGTGGGGAA | 0.07 kcal/mol
GAAGTCACGTGGTGGA | 0.17 kcal/mol
GGTTGCACGTGGCGGG | -0.06 kcal/mol
TAGATCACGTGAGGAG | 0.38 kcal/mol
GTCATCACGTGTCTGG | 0.31 kcal/mol
TATTTCACGTGATGAG | 0.31 kcal/mol
GATGGCACGTGCATGG | -0.1 kcal/mol
ATAGCCACGTGTGTTT | -0.05 kcal/mol
CTTGACACGTGGTTGG | 0.05 kcal/mol

Sequence | relative binding free energy
TTAAACACGTGGTTGA | -0.12 kcal/mol
ACTGTCACGTGGTGTA | -0.14 kcal/mol
GTGCACACGTGTGTGT | 0.06 kcal/mol
ATTAGCACGTGTGAAA | 0.07 kcal/mol
AAAGGCACGTGGAGCG | -0.03 kcal/mol
AGGTACACGTGGGATT | 0.16 kcal/mol
AGTATCACGTGCGGAG | 0.08 kcal/mol
AGCGGCACGTGGTTAA | -0.14 kcal/mol
GGTGGCACGTGATTTG | 0.2 kcal/mol
TAAGTCACGTGAGGAA | 0.38 kcal/mol
GAAGGCACGTGGCTGT | -0.17 kcal/mol
ATATGCACGTGGTTGC | -0.09 kcal/mol
ATTAGCACGTGGTATG | -0.09 kcal/mol
TCAGTCACGTGTTAGT | 0.08 kcal/mol
GATGTCACGTGTTGTG | 0.13 kcal/mol
GGTACCACGTGCTGTG | -0.08 kcal/mol
AAGGTCACGTGTGACG | 0.07 kcal/mol
TAATTCACGTGGGGAG | 0.09 kcal/mol
TTTTTCACGTGCCTGT | 0.18 kcal/mol
GCTGCCACGTGGTGGT | -0.14 kcal/mol
AGTTCCACGTGATGTT | 0.16 kcal/mol
AAGTACACGTGTGTGA | 0.2 kcal/mol
TGAGGCACGTGGCCGG | -0.36 kcal/mol
GCGGGCACGTGGTAAT | -0.1 kcal/mol
ATTGTCACGTGGAGTC | 0.18 kcal/mol
TTTGTCACGTGGGACT | -0.01 kcal/mol

Sequence | relative binding free energy
TGAGGCACGTGTGCTG | -0.12 kcal/mol
TTGGTCACGTGAGTAA | 0.41 kcal/mol
GGCGGCACGTGGTTGC | -0.03 kcal/mol
GGTTTCACGTGTAGCG | 0.35 kcal/mol
GAATTCACGTGGCTTG | 0.39 kcal/mol
TAGTTCACGTGGATGT | 0.4 kcal/mol
GGATGCACGTGCGGGG | 0.02 kcal/mol
TAATGCACGTGAATGA | 0.19 kcal/mol
TACTACACGTGTTTGT | 0.06 kcal/mol
CGGTGCACGTGATAGT | 0.06 kcal/mol
CGTATCACGTGGTTGT | 0.04 kcal/mol
TGTATCACGTGTCTGT | 0.11 kcal/mol
GTGGGCACGTGTCAGA | -0.09 kcal/mol
TTGACCACGTGGATTT | 0.11 kcal/mol
AGATACACGTGATTTG | 0.16 kcal/mol
GGTGGCACGTGTATTG | -0.01 kcal/mol
GCTATCACGTGTAGTG | 0.29 kcal/mol
TGAACCACGTGGAGGT | 0.05 kcal/mol
AATGGCACGTGCCGTG | -0.09 kcal/mol
GAAGTCACGTGAGGCG | 0.34 kcal/mol
TCGGGCACGTGAGGAA | 0.23 kcal/mol
AGGATCACGTGGGTTG | 0.05 kcal/mol
TATTACACGTGATGAG | 0.09 kcal/mol
TTACGCACGTGGGGGG | -0.17 kcal/mol
TGAGGCACGTGGGGAT | -0.13 kcal/mol
TAAGGCACGTGTTAAT | -0.05 kcal/mol

Sequence | relative binding free energy
CCAGGCACGTGTGGGG | -0.18 kcal/mol
CGCGGCACGTGATTAG | 0.12 kcal/mol
TTAATCACGTGAGATA | 0.18 kcal/mol
ATGGTCACGTGAGAAG | 0.19 kcal/mol
GGGGGCACGTGAGCTA | 0.05 kcal/mol
TTTGTCACGTGTAGTG | 0.19 kcal/mol
AGCTACACGTGTTAGG | 0.15 kcal/mol
TGTAACACGTGTGCGT | 0 kcal/mol
GTTATCACGTGAGTAG | 0.32 kcal/mol
AGTTGCACGTGTTGTT | 0.1 kcal/mol
GCGTACACGTGGATTG | 0.12 kcal/mol
ATGGGCACGTGGACTT | -0.06 kcal/mol
TTGGGCACGTGTGGAG | 0.01 kcal/mol
CGGGGCACGTGGAGGA | -0.1 kcal/mol
TATGCCACGTGGGTTG | -0.28 kcal/mol
GCTTGCACGTGTGTCG | 0.11 kcal/mol
GAGTTCACGTGGTTCA | 0.3 kcal/mol
GGGCTCACGTGCTGTT | 0.2 kcal/mol
TATGGCACGTGCGATG | -0.25 kcal/mol
TGGAGCACGTGAGGCA | 0.11 kcal/mol
AGGTACACGTGGTTGC | -0.02 kcal/mol
TTAGTCACGTGGATAG | 0.16 kcal/mol
CAGGTCACGTGTGGTC | 0.06 kcal/mol
TGCGACACGTGGGATG | -0.01 kcal/mol
CTTTGCACGTGGTCGT | -0.13 kcal/mol
TGGAGCACGTGAGTTC | 0.14 kcal/mol

Sequence | relative binding free energy
TCATTCACGTGTGTTG | 0.23 kcal/mol
TGTGTCACGTGGGCTT | -0.01 kcal/mol
TTAGTCACGTGATGAG | 0.31 kcal/mol
TACGTCACGTGTAAGG | 0.21 kcal/mol
ATTATCACGTGGTCAG | 0.06 kcal/mol
GATTTCACGTGGGGCA | 0.22 kcal/mol
GTAGGCACGTGACGTT | -0.1 kcal/mol
TGTTACACGTGCTGGC | 0.24 kcal/mol
TGTGCCACGTGAGATT | 0.1 kcal/mol
TTCAGCACGTGTTAGT | -0.1 kcal/mol
ATAGTCACGTGTGATG | 0.18 kcal/mol
TTGGGCACGTGGGGCC | -0.31 kcal/mol
TAGCTCACGTGAGTTG | 0.23 kcal/mol
CGTGTCACGTGGGTAG | -0.02 kcal/mol
TATGGCACGTGTCTGC | -0.05 kcal/mol
GTAGGCACGTGAGGTC | 0.21 kcal/mol
GGTTGCACGTGTTCGC | -0.03 kcal/mol
GGAAACACGTGGTGGC | 0 kcal/mol
GGTGACACGTGTGATC | 0.13 kcal/mol
TGGAGCACGTGCGGGC | -0.21 kcal/mol
CTATGCACGTGGTGGG | -0.18 kcal/mol
GGCGTCACGTGACGGG | 0.23 kcal/mol
TCTAGCACGTGCGTGT | -0.1 kcal/mol
GGTTCCACGTGTAGTA | -0.02 kcal/mol
AGTTGCACGTGGCAAG | -0.17 kcal/mol
TAATACACGTGTTGGC | 0.18 kcal/mol

Sequence | relative binding free energy
CAGGGCACGTGGCGTT | -0.29 kcal/mol
CAGTACACGTGGGGAT | 0 kcal/mol
GTATGCACGTGTGTGC | 0.06 kcal/mol
AAGATCACGTGAGATT | 0.44 kcal/mol
ATGTACACGTGTGACG | 0.2 kcal/mol
TGTTTCACGTGCAGGG | 0.26 kcal/mol
ATATGCACGTGTGTAA | -0.11 kcal/mol
TAGTTCACGTGATTGC | 0.24 kcal/mol
CGTTTCACGTGGTAAG | 0.21 kcal/mol
ATTCGCACGTGTGGAT | -0.08 kcal/mol
TACAGCACGTGGGGTA | -0.23 kcal/mol
ACGTGCACGTGAGTGT | 0.12 kcal/mol
GATATCACGTGCGTGG | 0.06 kcal/mol
TGGGGCACGTGGCAAT | -0.18 kcal/mol
GCGGGCACGTGTTAGA | -0.1 kcal/mol
GTTCACACGTGGTTTG | 0.15 kcal/mol
GTCGGCACGTGCGTTT | -0.19 kcal/mol
CCGGGCACGTGAGGTG | 0.11 kcal/mol
TCTGGCACGTGGAGTA | -0.16 kcal/mol
ACGTTCACGTGGGGGG | 0.11 kcal/mol
AGAGTCACGTGGGGTA | -0.11 kcal/mol
ATTTTCACGTGCAAGT | 0.24 kcal/mol
